We go through 43 compounds from ChEMBL document CHEMBL4888484, “Replenishing the malaria drug discovery pipeline: Screening and hit evaluation of the MMV Hit Generation Library 1 (HGL1) against asexual blood stage Plasmodium falciparum ,using a nano luciferase reporter read-out” (2022).

In all, about 150,000 compounds went through this assay and about 540 (0.36%) showed an effect of 50% or more. Some of the results follow.

What is called % Inhibition is the relative decrease from the control value, in per cent.

The subject of this assay is Plasmodium falciparum. As to the kind of experiment: Primary screen in NF54 nanoGlo assay, in single point, at 2uM, 72h; a lower Z score goes with more inhibition. The settings on record: timepoint 72 hour. The class given is functional, Erythrocyte.
Turning to `O=C(NCC(F)(F)C(F)F)c1cccc2c1CCCN2`, the “% Inhibition” value is given as -12% and the Z score worked out at 1.16.

In the case of `Cc1ccc(CN(C)C(=O)c2ccn(C)c2C)o1`, the “% Inhibition” value was 1% and the Z score is -0.1.

For the compound `COc1ccc(C(=O)N2CCC3(CC2)C[C@@H](N2CCOCC2)CCO3)cc1`, the “% Inhibition” value is listed as -14% and the Z score worked out at 1.85.

Turning to `CCc1ccccc1NC(=O)Cn1nc2ccc(C(=O)NCc3ccccc3)cn2c1=O`, the “% Inhibition” value is reported as -7% and the Z score is 1.15.

For the compound `CC(NCC1COc2ccccc2O1)c1cccnc1` (stereo unspecified), the “% Inhibition” value was -12% and the Z score was 1.33.

`O=C(c1ccccc1O)N1CCC2(CC1)c1nc[nH]c1CCN2C(=O)C1CCC1`: the “% Inhibition” value is -4% and the Z score is recorded as 0.34.

For the compound `CC(Oc1ccccc1Br)C(=O)N1CC2OCCN(C)C2C1` (stereo unspecified), the “% Inhibition” value is given as -7% and the Z score stood at 1.16.

As for `CCOc1nnc(CN2CCC[C@H]2c2cnn(C)c2)s1`, the “% Inhibition” value is listed as -1% and the Z score was found to be 0.21.

Take `CCOC(=O)c1c(CN(C)C)n(-c2ccc(OC)cc2)c2ccc(Oc3nccc(Nc4ccccc4)c3C#N)cc12`: the “% Inhibition” value was -2% and the Z score is listed as 0.42.

In the case of `O=C(c1ccccc1-c1nnn[nH]1)N1CCN(C/C=C/c2ccccc2)CC1`, the “% Inhibition” value is listed as 8% and the Z score is listed as -1.37.

For the compound `Cc1ccc2cc(CNCc3cccc(Cl)c3)c(N3CCC(O)CC3)nc2c1`, the “% Inhibition” value is -6% and the Z score is 1.

Turning to `Cc1noc(C)c1CC(=O)Nc1sccc1C#N`, the “% Inhibition” value is listed as -16% and the Z score was found to be 2.11.

As to `O=C1C[C@H](c2cccnc2)c2c(n(C3CCCCC3)[nH]c2=O)N1`, the “% Inhibition” value is -4% and the Z score turned out to be 0.52.

`Cn1c(C(=O)N2CCN(c3ccccc3)CC2)cc2occc21`: the “% Inhibition” value was -4% and the Z score was 0.6.

Regarding `Cc1cscc1C(=O)N1CCCS1(=O)=O`, the “% Inhibition” value is -4% and the Z score was 0.38.

Take `CCOC(=O)c1c(C)c(CCC(=O)NCc2ccccc2)n(C)c1C`: the “% Inhibition” value was found to be 7% and the Z score is -1.37.

As for `C[C@H]1COCCN1S(=O)(=O)c1ccc2c(c1)CCO2`, the “% Inhibition” value is recorded as -11% and the Z score turned out to be 0.96.

For the compound `Cc1cc(N(C)CC2CCN(CCO)CC2)nc(-c2ccccc2)n1`, the “% Inhibition” value is on record as -12% and the Z score worked out at 1.73.

With `CC1(C)COCCC[C@H]2CN(C(=O)Nc3cccc(F)c3)CC[C@H]2CC(=O)N(CC2CCC(F)(F)CC2)C[C@@H]1O`, the “% Inhibition” value worked out at 32% and the Z score is listed as -3.64.

For the compound `CCS(=O)(=O)N1CCC[C@H](c2nnc(-c3cccs3)o2)C1`, the “% Inhibition” value is reported as -9% and the Z score is listed as 1.67.

Turning to `Cc1cc(O)n2nc(CC(=O)NCCCc3scnc3C)nc2n1`, the “% Inhibition” value was -14% and the Z score was determined as 2.05.

`CC(C)c1nccn1CCNc1ncc(Br)cn1`: the “% Inhibition” value turned out to be 1% and the Z score is reported as -0.16.

In the case of `CCOc1ncccc1C(=O)N1CCNC(=O)C1`, the “% Inhibition” value is 4% and the Z score is reported as -0.56.

In the case of `COCc1cccc(C(=O)NCC(=O)NC(C)C)n1`, the “% Inhibition” value is given as -11% and the Z score is listed as 1.41.

Take `Clc1cnc(COc2ccncc2)s1`: the “% Inhibition” value was -10% and the Z score amounted to 1.05.

As to `CC(C)c1nccn1CC(=O)N1CCc2ncccc21`, the “% Inhibition” value is given as 3% and the Z score is given as -0.52.

Turning to `CC(NC(=O)C1CC1c1ccc(F)c(F)c1)c1ncon1` (stereo unspecified), the “% Inhibition” value is listed as -10% and the Z score came out at 0.87.

As to `CC(=O)N[C@](C)(C(=O)OCC(C)C)C1CC1`, the “% Inhibition” value was determined as 7% and the Z score is given as -1.4.

On to `CCc1noc(CCNC(=O)C(C)(C)N2CCCC2)n1`, for which the “% Inhibition” value is given as 1% and the Z score was -0.29.

In the case of `COc1ccc(OC)c(S(=O)(=O)N2CCC[C@@H]2CCc2noc(C)n2)c1`, the “% Inhibition” value is on record as -3% and the Z score is 0.51.

Take `Cc1nc(C)c(CC(=O)N(Cc2ccccn2)C[C@@H]2CCC(=O)N2)s1`: the “% Inhibition” value is listed as -16% and the Z score was 1.4.

As for `Cn1cc(S(=O)(=O)NC(=O)c2sccc2OC(F)F)cn1`, the “% Inhibition” value was 3% and the Z score is reported as -0.56.

For the compound `O=C(Cc1ccsc1)NC1(c2ccccc2)CCOCC1`, the “% Inhibition” value is listed as 2% and the Z score is -0.29.

For the compound `COc1ccc(OC)c(S(=O)(=O)N2CCC3(CCN(C)CC3)C2)c1`, the “% Inhibition” value is given as -5% and the Z score was determined as 0.9.

Regarding `CC(=O)NC[C@H]1CCCN(C(=O)c2cnn(C3CCCC3)c2C)C1`, the “% Inhibition” value was 0% and the Z score was 0.

Turning to `COC[C@]1(O)CCOC2(CCN(C(=O)c3ccc4cc[nH]c4c3)CC2)C1`, the “% Inhibition” value is on record as -18% and the Z score is recorded as 2.65.

For `O=C([C@H]1CCc2nncn2C1)N1CCC(F)(F)C1`, the “% Inhibition” value was -3% and the Z score was 0.62.

In the case of `Cc1cc(Br)cc(N[C@H](c2cccnc2)c2ncc[nH]2)c1`, the “% Inhibition” value is 33% and the Z score is listed as -7.24.

In the case of `Cc1cc(C(=O)N2CCC[C@](C)(C#N)C2)nc(C)n1`, the “% Inhibition” value stood at 0% and the Z score was 0.01.

Consider `COCCCN(C)C(=O)CNC(=O)COc1ccccc1`, for which the “% Inhibition” value is on record as -5% and the Z score is on record as 0.69.

Turning to `C/C=C(\C)CN(C)CCCc1c(C)n[nH]c1C`, the “% Inhibition” value was -11% and the Z score worked out at 1.02.

On to `Cc1c(NC(=O)C(F)(F)C(F)(F)C(F)(F)F)cc(NC(=O)C(F)(F)C(F)(F)C(F)(F)F)cc1NC(=O)C(F)(F)C(F)(F)C(F)(F)F`, for which the “% Inhibition” value was -7% and the Z score is given as 1.1.

For the compound `CC(C)Cc1cc(Cn2cnc(-c3ccccc3)c2[C@H]2CCOC2)no1`, the “% Inhibition” value was 5% and the Z score is on record as -0.81.
